About 270 (0.14%) of roughly 190,000 compounds were called active. This list was built around the results that the source calls inconclusive (neither active nor inactive); the mix of calls is not that of the screen.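 The calls were made as follows: active = GTP binding activity at least 20% away from the 100% baseline, either lowered as inhibitor or raised as activator; inconclusive = flagged as likely green fluorescent, judged across all proteins in the well; inactive = the rest.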
target: GTPase HRas (Homo sapiens) (UniProt P01112); assay: HRas wt fluorescent GTP binding changes, either direction – biochemical, wildtype, bead-based flow cytometry, multiplex, primary screen (AID 759); settings: GST-Ras wt beads, Bodipy-FL-GTP binding, at 10 µM, actives lie on both sides;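 also: 0% = unlabeled GTP competition control and 100% = no-compound control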
Sequence of UniProt P01112 (P01112 whole entry, looked up): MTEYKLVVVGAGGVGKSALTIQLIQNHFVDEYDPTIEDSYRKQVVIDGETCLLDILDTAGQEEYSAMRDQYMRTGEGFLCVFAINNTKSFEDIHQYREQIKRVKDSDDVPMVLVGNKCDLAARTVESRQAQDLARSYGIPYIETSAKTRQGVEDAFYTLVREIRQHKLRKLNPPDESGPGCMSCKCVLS

GTP binding activity, inactive:
O=C(O)CCC(=O)Nc1ccc(/C=C/C(=O)C2CC2)cc1 97%
CCNC(=O)c1ccccc1SCC(=O)Nc1ccc(F)cc1 98%
COc1ccc(CCNC(=O)[C@@H](NC(=O)c2ccccc2F)C(C)C)cc1OC 96%
COc1ccc(-c2nn(-c3ccccc3)cc2/C=C/C(=O)N2CCN(c3ccccn3)CC2)cc1 100%
Cc1c(C(=O)N/N=C/c2ccncc2)no[n+]1[O-] 100%
CCCc1n(CC)c2ccccc2[n+]1CC(O)COC1CCCCC1 (centres undefined) 100%
CCOc1ccc(/C=N/n2c(SC)nnc2-c2ccccc2)cc1OCC 100%
CC(C(=O)N1CCCCC1)N(C)CC(=O)Nc1ccc(Cl)cc1 (centres undefined) 95%
CCc1ccc(C2=NN(CCC(=O)NCc3cccs3)C(=O)CC2)cc1 103%
Nc1nc(CN2CCN(c3ccccc3F)CC2)nc(N2CCCc3ccccc32)n1 87%
CCCc1nc2ccccc2c(=O)n1CC(=O)c1ccccc1 98%
O=C(NCC(=O)N1CC(O)CC1C(=O)N1CCCC1C(=O)OCc1ccccc1)OCc1ccccc1 (centres undefined) 95%
Cc1cc(C)n(CC(O)Cn2c3ccc(Cl)cc3c3cc(Cl)ccc32)c(=O)n1 (centres undefined) 99%
O=C(Nc1ccc(F)cc1)C1=CC(=O)N2CCN=C2S1 97%
CC(C)(C)n1nc2c(c1NC(=O)c1cc3ccccc3o1)CSC2 96%
Cc1cccc(N2C(=O)CSC23CCCCC3)c1 101%
O=C(Nc1cccs1)OCCN1CCN(Cc2ccccc2)CCC1=O 98%
NS(=O)(=O)c1ccc(N2N=C(c3ccccc3)CC2c2ccc(F)cc2)cc1 (centres undefined) 97%
N#Cc1c(-c2cccc(Br)c2)cc(-c2ccco2)[nH]c1=O 83%
COc1ccccc1Oc1ccccc1C(=O)O 114%
COc1ccc(C(=O)NC(=S)Nc2ccc(Cl)cn2)cc1OC 99%
CCOC(=O)c1ccc(NC(=O)N2CCN(C(=O)C3CCCO3)CC2)cc1 (centres undefined) 101%
Cc1cc(C(=O)OCC(=O)NCc2ccco2)c(C)o1 98%
CCOc1ccccc1CN1CCN(Cc2csc(C(C)=O)c2)CC1CCO (centres undefined) 98%
CC(=O)n1nc(-c2ccccc2)nc1NCc1ccc(N(C)C)cc1 91%
CC(=O)Nc1ccc(S(=O)(=O)Nc2cccc(NC(=O)c3ccco3)c2)cc1 92%
COc1cccc(CN2CCNC(=O)C2CC(=O)N(Cc2cnn(C)c2)C(C)C)c1 (centres undefined) 97%

GTP binding activity, inconclusive:
c1ccc(C2=Nn3c(nnc3-c3ccco3)SC2)cc1 82%
COc1cc(C(=O)Nc2ccc3c(c2)CCN3C(C)=O)cc(OC)c1OC 163%
Cc1ccc(C(=O)N/N=C(\CC(C)C)c2ccccc2)cc1 119%
Cc1cc(Cl)ccc1NC(=S)NCCN1CCOCC1 101%
CCOc1ccccc1C1C(C#N)=C(N)Oc2n[nH]c(CC)c21 (centres undefined) 108%
O=C(CSc1nc2ccccc2c(=O)n1NC(=O)c1ccccc1)c1ccccc1 97%
Cc1ccc(S(=O)(=O)Nc2cccnc2)cc1 101%
CCC1SC2=NC(C)=C(C(=O)OC)C(c3ccc(C)cc3)N2C1=O (centres undefined) 90%
O=C(Cn1cnc2c(nnn2Cc2ccc(F)cc2)c1=O)OCc1ccccc1 103%
O=C(Cc1ccccc1)NNC(=O)C1CCCC1 93%
CN(C)CCCNCCCCNC(=O)/C=N/O 103%
O=C(CCc1nnc(CCCc2ccccc2)o1)NC(C1CC1)C1CC1 96%
CNS(=O)(=O)c1ccc(NC(=O)C2CC(=O)N(c3ccc(Cl)cc3)C2)cc1 (centres undefined) 92%
COC(=O)c1cn(C(=O)/C=C/c2ccc(OC)c(OC)c2)c2ccccc12 86%
CN(C)c1nnc(-c2ccc(Cl)cc2)o1 94%
COc1ccc(NC(=O)c2cccc(N3C(=O)NC4CC3(C)Oc3ccccc34)c2)cc1 (centres undefined) 103%
O=C(N/N=C/c1sc(N2CCCCC2)nc1-c1cccs1)C1CC1 91%
O=C(c1ccc(COc2ccc(F)cc2)o1)n1cccn1 95%
Cc1nc2cc(C(=O)NCc3ccc4c(c3)OCO4)ccc2n1-c1ccc(Br)cc1 79%
COc1cc(N2CCCC2)c(OC)cc1/C=c1/sc2nc3ccccc3n2c1=O 339%
Cc1cc(-n2c(SCc3ccccc3F)nc3n[nH]c(C)c3c2=N)ccc1Cl 93%
COc1cccc(NC(=O)c2oc3ccc(S(=O)(=O)N4CCOCC4)cc3c2C)c1 94%
CCCCN1C(=O)/C(=C/C=C2\N(C)c3ccccc3C2(C)C)SC1=S 165%
O=[N+]([O-])c1cccc(C2NCC(c3ccccc3Cl)c3c2[nH]c2ccccc32)c1 (centres undefined) 97%
COc1ccc(NC(=O)c2ccco2)cc1NC(=O)c1cccs1 103%
O=C(N/N=C/c1cn(-c2cccs2)nc1-c1ccccc1)c1ccccc1Cl 99%
COc1ccc(/C=N/NC(=O)CCCC(=O)NC2CCCCC2)cc1 105%
CC1CCCCN1CCn1c(=S)[nH]c2cc3c(cc2c1=O)OCO3 (centres undefined) 95%
Cc1ccc2c(c1)cc(C)c1nnc(SCC(=O)NCc3ccco3)n12 93%
Cc1cc(C(=O)NC(=S)Nc2cccc(C(=O)O)c2C)ccc1[N+](=O)[O-] 119%
CCOC(=O)C(CC)Sc1ccc2nnc(CCNS(=O)(=O)c3ccccc3)n2n1 (centres undefined) 98%
O=C1Oc2ccccc2C(=O)/C1=C/N1CCN(c2ccccc2F)CC1 91%
CCOC(=O)Cc1cnc(NC(=O)CSc2nc(N)cc(N)n2)s1 85%
CN(c1ccc(C(=O)O)cc1)S(=O)(=O)c1ccc(Cl)cc1 97%
c1ccc(CCNc2ccnc3cc4ccccc4cc23)cc1 92%
Cc1cccc(C(=O)NC2C(=O)NNC2c2ccc(Cl)cc2)c1 (centres undefined) 91%
Cc1ccc2cccc(NC(=S)NC(=O)c3c(Br)cnn3C)c2n1 102%
O=C1N=C2SCCN2/C1=C\c1c(Cl)cccc1Cl 104%
COc1ccc(NC(=O)CN2CCc3ccccc3C2)cc1S(=O)(=O)N1CCOCC1 103%
Nc1nc(SCC(=O)Nc2cccnc2Cl)n[nH]1 89%
Cc1ccc(CSc2ncccc2C(=O)O)cc1 124%
Clc1ccc(CSc2nnc(-c3ccc4c(c3)OCO4)o2)cc1 98%
CC1(C)CC(=O)C=C(N=CC2=C(O)CC(C)(C)CC2=O)C1 90%
O=C(NCC1CCCO1)/C(=C\c1ccco1)NC(=O)c1ccc(Cl)cc1 (centres undefined) 94%
Cc1nn(-c2ccccc2)c(C)c1C(=O)OCC(=O)NCc1ccco1 103%
Cc1cc(Cl)c(S(=O)(=O)N2CCN(c3cccc(C)c3C)CC2)cc1OCC(N)=O 98%
CN(C)CCNC(=S)Nc1ccc(Br)cc1 104%
Cc1ccc(/C=N\NC(=O)c2ccc(Cn3cc(Br)c([N+](=O)[O-])n3)o2)o1 94%
COc1ccc(-c2nnc3sc(COc4ccc(C)cc4)nn23)cc1 94%
Cc1ccc(CSc2nc3c(c(N(C)C)n2)CCCC3)cc1 92%
COc1ccc(-n2nnnc2SCC(=O)NC(=O)Nc2ccc3c(c2)OCCO3)cc1 94%
CC(C)c1ccc(C(=O)NC2=NCCS2)cc1 406%
O=C1C2C3CCCC3=C3CCCC3C2C(=O)N1c1cccc(Cl)c1 (centres undefined) 105%
CCN(C(=O)COc1ncnc2ccc(Br)cc12)C1CCS(=O)(=O)C1 (centres undefined) 105%
CCN(CC)Cc1c(C(=O)OC(C)C)nnn1-c1nonc1N 105%
CCCCOC(=O)c1ccc(NC(=S)NC(=O)c2c(Cl)cnn2C)cc1 98%
Cc1ccc(-c2c(C(=O)O)c(C(=O)O)c3n2CCC3)cc1 112%
CC1=C(OC(=O)c2ccccc2)C(C)(C)C(c2ccccc2)OC1=O (centres undefined) 96%
CCOC(=O)C1=C(C)NC(SCC(=O)OC)=C(C#N)C1c1ccc(C(=O)OC)cc1 (centres undefined) 88%
O=C(Cn1ncc(Cl)c(Cl)c1=O)N1CCN(Cc2ccccc2)CC1 92%
CCNC(=O)O/N=C(\C)c1sc(-c2ccccc2)nc1C 103%

GTP binding activity, active:
O=C(O)CCN1C(=O)/C(=C\c2ccc(-c3nc4ccccc4s3)o2)SC1=S 74%
CCCCn1c(SCC(=O)c2ccccc2)nc2c1c(=O)[nH]c(=O)n2C 41%
O=c1c2ccccc2nc2c3ccccc3c(NCc3ccco3)nn12 68%
COc1ccc(Nc2nc(-c3c(C)nc4ncccn34)cs2)cc1 77%
COC(=O)c1cccc(NC(=O)c2nn(C)c(=O)c3ccccc23)c1 77%
Cc1ccc(C(=O)COC(=O)c2ccc3c(c2)C(=O)N(c2cccc4ncccc24)C3=O)cc1 76%

Source: PubChem BioAssay AID759 (NMMLSC, 2007)
